Laboratory results taken from PubChem BioAssay AID1963576 (National Center for Advancing Translational Sciences (NCATS), 2024).
Among all 46,000 compounds or so, about 60 (0.1%) were called active. Another 3% or so got no clear call; they are omitted. Calls follow the shape of the dose curve; as a rule, active = well fitted inhibition curve with a large enough effect; inconclusive = small, poorly fitted or top-dose-only effect; inactive = no such curve, though single readings can be large or run the other way. The list shows a part of the results.

experiment: Primary qHTS assay for Inhibitors of ovarian cancer metastasis using an organotypic tumor microenvironment (TME) model.; also: nearly all actives have a fitted effect of over 65% in size;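 as to activity change, negative = inhibition: plate controls were DMSO wells for no effect and tomatine positive control wells for full effect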; conditions: SKOV3ip1-GFP adhesion/invasion on 3D omental model, fluorescence; series mostly up to 45.8 µM; activity change, negative = inhibition: at the top concentration
How it was run: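 Adhesion/invasion was scored as fixed GFP-labeled SKOV3ip1 cell counts (488/509 nm), normalized to DMSO and tomatine controls. Cancer cells in serum-free medium, with four compound doses (0.36-46 umol/L), sat 2 hr at RT then 16 hr at 37 C on a 48 hr fibroblast/mesothelial/ECM culture.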

Activity change, negative = inhibition, inactive:
CCc1ccccc1NC(=O)C1CCN(c2cnccn2)CC1 4.86%
CCCCSCCCNC(=O)c1cn(C)c2ccc(S(=O)(=O)N3CCCCCC3)cc2c1=O 0.646%
CC(C)CCn1nnc2sc(-c3ccccc3)cc2c1=O 2.59%
COc1ccc2c(c1)c1c(c(=O)n(-c3ccc(OC)c(OC)c3)c(=O)n1Cc1ccccc1F)n2C -8.12%
CC(=O)c1nnn(-c2ccc(C)cc2Cl)c1C -17.7%
CC(=O)c1ccc(Nc2ccc3cc(S(=O)(=O)N4CCCC4)ccc3n2)cc1 2.11%
O=C(Nc1cccc(C(=O)N2CCN(c3cccc(Cl)c3)CC2)c1)c1nsc2ccccc12 7.99%
COc1cc(OC)c(NC(=O)c2nn(-c3ccc(C)cc3)c(=O)c3c2c2ccccc2n3C)cc1Cl 1.61%
CCOC(=O)C1CCN(C(=O)c2ccc(NC(=O)c3nsc4ccccc34)cc2)CC1 1.21%
CCOc1ccc(C2c3c(oc4ccc(C)cc4c3=O)C(=O)N2CCCN(C)C)cc1 (stereo not drawn) 32.5%
CSc1ccc(CCNC(=O)C(C)n2nc(C)c3sc4ccccc4c3c2=O)cc1 (stereo not drawn) 5.37%
Cc1ccccc1Cn1c2ccccc2c2cnn(CC(=O)NCC(C)c3ccccc3)c(=O)c21 (stereo not drawn) 0.323%
O=C(NCc1ccccc1Cl)c1ccc(Cn2c(SCc3ccccc3)nc3cccnc32)cc1 4.71%
Cc1ccc(NC(=O)c2ccc(CNS(=O)(=O)c3ccc4c(c3)C(C)(C)C(=O)N4C)cc2)cc1C 4.3%
CC(=O)N1c2ccc(S(=O)(=O)NCC3CCC(C(=O)Nc4ccc(C)c(C)c4)CC3)cc2CC1C (stereo not drawn) -9.44%
Cc1cc(C(=O)NCc2cccc(Br)c2)c2c(C)nn(-c3ccccc3)c2n1 -0.569%
O=C(CCn1ccc2cc(S(=O)(=O)N3CCCC3)ccc21)NCc1cccc(Cl)c1 3.85%
Cc1cc(C)c2c(-n3cccc3)c(C(=O)NCc3cccc(F)c3)sc2n1 -3.8%
CCOc1ccc(NC(=O)c2nc3nc(C)cc(C(F)F)n3n2)cc1 -0.347%
COc1ccc(OC)c(Nc2ncnc3c2nc2n3CCCC2)c1 19.1%
COc1cc(CCNC(=O)c2ccc3c(c2)c(C)c(C)n3Cc2cccc(C)c2)cc(OC)c1OC 9.55%
COc1ccc(-c2cc(=O)c3cc(OCC(=O)OC(C)C)ccc3o2)cc1 1.25%
Oc1ccc(-c2nc(-c3ccccc3)c(-c3ccc(Br)cc3)[nH]2)cc1 -20.9%
O=C(COC(=O)C(Cc1c[nH]c2ccccc12)NC(=O)c1ccc(Cl)cc1)c1ccc(Cl)cc1 (stereo not drawn) 4.74%
COc1ccccc1NC(=O)C1CCN(S(=O)(=O)c2ccc3[nH]c4c(c3c2)CCCCC4)CC1 -1.93%
Cc1cc(C)c(NC(=O)CCn2c(=O)c3cccn3c3ccccc32)c(C)c1 -4.56%
CCc1c(C)sc2c1CCN(C(=O)Nc1cc(C)cc(C)c1)C2c1ccccc1 (stereo not drawn) -1.63%
COc1cc(NC(=O)CCS(=O)(=O)c2nc(-c3ccc4c(c3)OCO4)cc(C(F)(F)F)n2)cc(OC)c1OC 2.11%
COC(=O)c1sc(N2C(=O)c3oc4ccccc4c(=O)c3C2c2ccc(O)cc2)nc1C (stereo not drawn) 1.69%
Cc1ccc(NC(=O)Cn2c(=O)n(CCCCC(=O)NCCc3ccc(Cl)cc3)c(=O)c3ccccc32)cc1 94%
COc1ccc(CCNC(=O)c2oc(=O)c3ccccc3c2-c2ccccc2)cc1OC -8.58%
Cc1nc(NC(=O)c2c(-c3ccccc3)c(-c3ccccc3)nn(C)c2=O)sc1C -13%
CCCCNC(=O)C1CCC(CNS(=O)(=O)c2ccc(C)cc2)CC1 (stereo not drawn) -3.12%
COCCCNC(=O)CSc1nc2cc3c(cc2c(=O)n1CCCCCC(=O)NCc1ccc2c(c1)OCO2)OCO3 -4.68%
CCc1ccc(S(=O)(=O)Nc2ccc3[nH]c(=O)sc3c2)cc1 -7.65%
Cc1cccc(NC(=O)c2sc3nc4c(cc3c2N)CN(C(C)C)CC4)c1 0.531%
CC1=C(C(=O)OC2CCCCCC2)C(c2cccc(F)c2F)CC(=O)N1 (stereo not drawn) -4.95%
CCC1CCCCN1C(=O)CSc1nc(-c2ccc(OC)c(OC)c2)cc(C(F)(F)F)n1 (stereo not drawn) -1.57%
Cc1nc2cc(C(=O)NC3CCCCCC3)ccc2n1-c1ccc(Br)cc1 4.04%
CC(=O)N1CCc2cc(Br)cc(S(=O)(=O)CCC(=O)N3CCN(c4ccccc4)CC3)c21 -1.54%
Cc1cc([N+](=O)[O-])ccc1NC(c1nnc(-c2ccccc2)o1)c1ccccc1F (stereo not drawn) -3.13%
Fc1ccc(Nc2nc(SCc3ccccc3F)nc3ccccc23)cc1 -9.37%
Cc1ccc(Cn2c(SCC(=O)NCc3ccccc3Cl)nc3ccsc3c2=O)cc1 -6.6%
COc1cc(NC(=O)CCCc2nnc3n(CC(C)C)c(=O)c4sccc4n23)cc(OC)c1 10.5%
CCOc1ccc2nc(N3CCCC(C(=O)Nc4ccc(OC)c(Cl)c4)C3)sc2c1 (stereo not drawn) -0.256%
Cc1cc(-c2ccc(C)c(S(=O)(=O)NCCc3ccc(S(N)(=O)=O)cc3)c2)on1 17%
CC(C)c1ccc(NS(=O)(=O)c2ccc3[nH]cc(C(=O)NCC4CCCO4)c(=O)c3c2)cc1 (stereo not drawn) -0.471%
COc1cc(OC)c(NC(=O)n2ncc3cc(Cl)ccc32)cc1Cl 6.45%
COc1ccc(OC)c(NC(=O)CSC2=Nc3ccccc3C3=NC(CC(=O)NCc4ccc(F)cc4)C(=O)N23)c1 (stereo not drawn) -3.73%
COc1ccc(C2CC(=O)c3c([nH]c(C(=O)OC4CCCCCC4)c3C)C2)cc1 (stereo not drawn) -0.177%
COC(=O)c1ccccc1NC(=O)c1cc(C)nc2c1c(C)nn2-c1ccc(C)cc1 8.16%
Cc1ccc(NC(=O)N2CCN(c3nnc(C)c4c(C)n(-c5ccc(Cl)cc5)nc34)CC2)c(C)c1 2.9%
Cc1ccc(CNC(=O)CSc2ncc(S(=O)(=O)c3ccc(C)c(Cl)c3)c(=O)[nH]2)cc1 8.3%
O=C(Nc1ccccc1O)c1cc(S(=O)(=O)N2CCCC2)ccc1Cl -22.9%
Cc1ccc(Cl)cc1NC(=O)NCc1cccn1Cc1ccc(F)cc1 -1.58%
Cc1cccc(Cc2c(C)nc3nc(SCc4ccccc4Cl)nn3c2C)c1 4.44%
COC(=O)N1CCCc2cc(S(=O)(=O)N3CCN(c4ccccc4)CC3)ccc21 2.91%
COc1cc(Cl)c(C)cc1NC(=O)CSc1nc2c(c(=O)[nH]1)CCCC2 -0.634%
COc1cc(Cl)c(C)cc1NC(=O)CSc1cc(-c2ccccc2)nc(C)n1 -22.2%
COc1ccc(CC(=O)NCCc2csc(-c3ccc(C(F)(F)F)cc3)n2)cc1 -19.9%
CCOC(=O)c1[nH]c(C)c(C(=O)NCc2cccc(OC)c2)c1C -3.73%
CS(=O)(=O)n1nc(-c2ccco2)nc1NCc1ccccc1Cl -3.1%
COc1ccc(C(=O)c2cn(Cc3cccc(C)c3)c3cc4c(cc3c2=O)OCO4)cc1 12.5%
CCOc1ccc(NC(=O)c2sc3ccccc3c2Cl)cc1 -4.45%
Cc1ccc(NS(=O)(=O)c2ccc3c(c2)[C@H]2C=CC[C@H]2[C@@H](c2ccc(F)cc2)N3)cc1C 2.99%
Cn1c(=O)c2c(SCC(=O)NCc3ccc(F)cc3)nc(-c3ccccc3Cl)nc2n(C)c1=O 0.167%
Cc1c(/C=C(\C#N)C(=O)Nc2cccc(Cl)c2)c2ccccc2n1Cc1ccccc1 8.15%
COC(=O)c1sc2cccc(F)c2c1S(=O)(=O)Nc1ccc(C)cc1Cl -13.8%
C[C@H](NC(=O)C(=O)Nc1ccccc1C(C)(C)C)C(=O)N[C@@H](CC(=O)O)C(=O)COc1c(F)c(F)cc(F)c1F 13.8%
O=C(Nc1ccc2[nH]c(=O)c(=O)[nH]c2c1)c1cccc(F)c1 -11.4%

outcome, inactive:
Cc1ccc(Cl)cc1N1CCN(C(=O)CCCn2c(=O)[nH]c3ccc(Br)cc3c2=O)CC1
O=C(NCCS(=O)(=O)N1CCN(c2ccc(F)cc2)CC1)c1cccc(C(F)(F)F)c1
COc1cc(NC(=O)CSc2nccn2C)cc(OC)c1OC
O=C(CCn1cnnn1)Nc1cc(C(F)(F)F)cc(C(F)(F)F)c1
CCc1ccccc1NC(=O)c1ccc2c(SCC(=O)O)c3c(nc2c1)CCC3
COCCCn1c(=N)c(C(=O)NCc2cccnc2)cc2c(=O)n3cc(C)ccc3nc21
Cc1nn(-c2ccccc2)c2c1cc1c(=O)n(C)c(=O)nc-1n2-c1cccc(Cl)c1
CCN1CCN(C(c2ccc(SC)cc2)c2c(O)cc(C)n(Cc3ccco3)c2=O)CC1 (stereo not drawn)
COc1ccc(CNC(=O)CN2C(=O)COc3ccc(S(=O)(=O)N4CCC(C)CC4)cc32)cc1
CCOC(=O)c1cc2c(=O)n3ccccc3nc2n(Cc2ccco2)c1=NC(=O)c1cccc(F)c1
CN(C)S(=O)(=O)c1ccc2c(c1)N(CC(=O)Nc1ccc(F)cc1)C(=O)CS2
COc1cccc(OCC(=O)NC2CC(=O)N(c3ccc4c(c3)OCCO4)C2)c1 (stereo not drawn)
COc1ccc2c(c1)c1c(c(=O)n(-c3ccc(OC)c(OC)c3)c(=O)n1CC(=O)N1CCCC1)n2C
Cc1ccc2nc(-c3ccc(NC(=O)c4ccccc4S(C)(=O)=O)cc3)sc2c1
CCOc1ccc(OCC)c(NC(=O)CCc2nc3cccnc3n2Cc2cccs2)c1
COc1ccc(-c2nc(C)c(CCNC(=O)c3c(F)cccc3F)s2)cc1
Cc1ccc(C)c(Cn2c(=O)n(CCC(=O)NCc3ccc4c(c3)OCO4)c(=O)c3sccc32)c1
CCCCNC(=O)CCCn1c(=O)c2ccccc2n(Cc2c(C)cc(C)cc2C)c1=O
CN(C)c1ccc(CNC(=O)c2cnc3sc(N4CCCCCC4)nn3c2=O)cc1
CCOC(=O)c1cccc(NC(=O)CC2C(=O)N(c3ccc(C)cc3)C(=O)N2Cc2cccc(OC)c2)c1 (stereo not drawn)
CCc1ccccc1NC(=O)Cn1c(=O)n(CC(=O)NCCc2ccccc2)c(=O)c2ccccc21
COc1ccc(-c2noc(-c3ccc(C)cc3Cl)n2)cc1OC
COc1ccc(C2CC(=O)Nc3c2c(=O)n(C)c2nc4ccccc4n32)cc1 (stereo not drawn)
